{"source": "PubChem BioAssay AID624417", "about": "(National Center for Advancing Translational Sciences (NCATS), 2012)", "note": "Several values for one entry are separate records, joined by “and”; a condition that tells them apart may be missing. Equal entries are not always repeated. Screen size: about 410,000 compounds; about 6,400 (1.6%) were called active. Inconclusive means that the source gave no clear call. Such entries were picked first, then a sample of the others. Calls follow the shape of the dose curve; as a rule, active = well fitted inhibition curve with a large enough effect; inconclusive = small, poorly fitted or top-dose-only effect; inactive = no such curve, though single readings can be large or run the other way. Where the call is inconclusive, the potency comes from a doubtful curve fit. % is scaled to controls: 0 for no effect and ±100 for the full control effect; potency is read from the fitted curve at half-maximal effect; tags tell the direction and shape of the fitted curve.", "data": [{"target": "Glucagon-like peptide 1 receptor (Homo sapiens) (UniProt P43220)", "sequence (P43220 whole entry, looked up)": "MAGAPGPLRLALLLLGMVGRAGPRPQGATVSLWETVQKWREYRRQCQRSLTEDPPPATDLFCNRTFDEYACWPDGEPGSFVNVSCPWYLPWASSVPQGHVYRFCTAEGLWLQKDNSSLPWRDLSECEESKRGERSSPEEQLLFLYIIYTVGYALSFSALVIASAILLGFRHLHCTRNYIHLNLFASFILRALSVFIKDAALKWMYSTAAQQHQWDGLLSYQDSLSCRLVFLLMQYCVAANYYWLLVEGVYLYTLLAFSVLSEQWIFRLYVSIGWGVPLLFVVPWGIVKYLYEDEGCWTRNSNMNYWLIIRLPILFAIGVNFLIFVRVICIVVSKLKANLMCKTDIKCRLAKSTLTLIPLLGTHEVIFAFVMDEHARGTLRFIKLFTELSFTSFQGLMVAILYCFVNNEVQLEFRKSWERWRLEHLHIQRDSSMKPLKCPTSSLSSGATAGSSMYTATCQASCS", "assay": "qHTS of GLP-1 Receptor Inverse Agonists (Inhibition Mode); also: nearly all actives have a fitted effect of over 55% in size", "settings": "HEK293 GLP-1R CRE-luciferase, luminescence, 24 h, GLP-1R form is constitutively active; activity change, negative = inhibition: at 38.3 µM (top of the series) unless noted", "summary_of_the_method": "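Using stably transfected HEK293 (constitutively active GLP-1R, cAMP-luciferase reporter), compounds were incubated 24 hr and luciferase measured by luminescence.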", "values": [{"molecule": "CCCOC(=O)c1cccc(Nc2nc(C(=O)OCC)nc3ccccc23)c1", "Potency": "inconclusive: 11.2 µM [inhibitor, partial curve, poor fit]"}, {"molecule": "CC(=O)c1ccc(Nc2nc(-c3ccccc3)nc3ccccc23)cc1", "Potency": "inconclusive: 7.08 µM [inhibitor, partial curve, poor fit]"}, {"molecule": "Cc1cc2occ(CC(=O)NNC(=O)c3ccccc3F)c2cc1C", "Potency": "inconclusive: 3.16 µM [inhibitor, partial curve, poor fit]"}, {"molecule": "O=C(Nc1ccc2c(c1)OCO2)C1CCN(S(=O)(=O)Cc2ccccc2)CC1", "Potency": "inconclusive: 28.2 µM [inhibitor, single point]"}, {"molecule": "COc1cccc(NC(=O)COC(=O)c2ccc(C)c(S(=O)(=O)N3CCCCC3)c2)c1", "Potency": "inconclusive: 11.2 µM [inhibitor, partial curve, poor fit]"}, {"molecule": "CN1CCCC(CC2c3ccccc3Sc3ccccc32)C1", "note": "(configuration not stated)", "Potency": "inconclusive: 10 µM [inhibitor, partial curve, poor fit]"}, {"molecule": "OC1(C#CCN2CCCC2)c2ccccc2-c2ccccc21", "Potency": "inconclusive: 11.2 µM [inhibitor, partial curve, poor fit]"}, {"molecule": "Cc1cccc(C)c1OCC(=O)NNC(=S)NC(=O)C1CC1", "Potency": "inactive"}, {"molecule": "COc1ccccc1N1CCN(CC(O)COc2cccc3ccccc23)CC1", "note": "(configuration not stated)", "Potency": "inconclusive: 10 µM [inhibitor, partial curve, poor fit] and inconclusive: 22.4 µM [inhibitor, partial curve, poor fit]"}, {"molecule": "COc1cc(OC)cc(C(=O)OCC(=O)c2cc(C)n(CC3CCCO3)c2C)c1", "note": "(configuration not stated)", "Potency": "inconclusive: 3.16 µM [inhibitor, partial curve]"}, {"molecule": "O=C(NCCCc1ccccc1)c1ccc2c(c1)sc1nc(-c3ccc(F)cc3)cn12", "Potency": "inconclusive: 20 µM [inhibitor, single point]"}, {"molecule": "Cc1scc(C(=O)N/N=C/c2ccc(OC(C)C)cc2)c1C", "Potency": "inconclusive: 14.1 µM [inhibitor, partial curve, poor fit]"}, {"molecule": "COc1ccc(-n2c(-c3ccc(Br)cc3)c[n+]3c2CCCCC3)cc1", "Potency": "inconclusive: 8.91 µM [inhibitor, single point]"}, {"molecule": "OC(COc1ccc(F)cc1Cl)CN1CCC(Cc2ccccc2)CC1", "note": "(configuration not stated)", "Potency": "inconclusive: 10 µM [inhibitor, partial curve, poor fit]"}, {"molecule": "CCc1nc2ccc(C(=O)N3CCC(O)(Cc4ccccc4)CC3)cn2c1N(C)C(=O)Cc1ccccc1", "Potency": "inactive"}, {"molecule": "CC(C)COc1ccc(-c2nnn(CC(=O)N3CCCC3)n2)cc1", "Potency": "inactive"}, {"molecule": "COc1cc(CC(=O)Nc2nc(-c3ccccc3)c(C(C)=O)s2)cc(OC)c1OC", "Potency": "inconclusive: 12.6 µM [inhibitor, single point]"}, {"molecule": "COc1ccc(OC)c(CNc2ncc(-c3ccc(Cl)cc3)n2C)c1", "Potency": "inactive"}, {"molecule": "CC(C)(C)OC(=O)NCc1ccc(CNC(=O)c2[nH]cnc2C(=O)N[C@@H](Cc2ccccc2)C(=O)OCc2ccccc2)cc1", "Potency": "inactive"}, {"molecule": "Cc1ccc(C(=O)N/C(=C\\c2ccco2)C(=O)NCCc2c[nH]c3ccccc23)cc1", "Potency": "inconclusive: 11.2 µM [inhibitor, partial curve, poor fit]"}, {"molecule": "CCOC(=O)c1cccc(NC(=O)NC2COc3ccccc3C2)c1", "note": "(configuration not stated)", "Potency": "inconclusive: 8.91 µM [inhibitor, partial curve]"}, {"molecule": "COc1ccccc1CN(C)C(=O)c1cccc(S(=O)(=O)N2CCCc3ccccc32)c1", "Potency": "inconclusive: 12.6 µM [inhibitor, single point]"}, {"molecule": "Cc1ccc2cc(C#N)c(SCC(=O)NNC(=O)Cc3ccccc3)nc2c1", "Potency": "inactive"}, {"molecule": "COC(=O)c1[nH]c2cccc(OC)c2c1NC(=O)CN1CCN(c2cccc(OC)c2)C(C)C1", "note": "(configuration not stated)", "Potency": "inconclusive: 12.6 µM [inhibitor, partial curve, poor fit]"}, {"molecule": "COC(=O)c1ccc(C)c(NC(=O)c2ccc(CN3CCc4ccccc4C3)cc2)c1", "Potency": "inconclusive: 0.794 µM [inhibitor, full curve, poor fit]"}, {"molecule": "CSc1nc(NCc2ccco2)c2ccccc2n1", "Potency": "inconclusive: 31.6 µM [inhibitor, single point]"}, {"molecule": "Cc1ccc(CNC(=O)CCCn2nc(C)n3c(cc4sccc43)c2=O)cc1", "Potency": "inactive"}, {"molecule": "Cc1ccc(S(=O)(=O)N(C)c2ccccc2)cc1", "Potency": "inconclusive: 28.2 µM [inhibitor, single point]"}, {"molecule": "Cc1csc(N/N=C/c2c(F)cccc2Cl)n1", "activity change, negative = inhibition": "inconclusive: -48.3% [inhibitor]"}, {"molecule": "O=C(c1ccc(Br)s1)N1CCN(Cc2ccc3c(c2)OCO3)CC1", "Potency": "inconclusive: 1.78 µM [inhibitor, full curve, poor fit]"}, {"molecule": "CCCN1CCN(C(=S)Nc2ccccc2C(F)(F)F)CC1", "Potency": "inconclusive: 14.1 µM [inhibitor, single point]"}, {"molecule": "CCN(CC(=O)NCc1ccc(Cl)cc1)C(=O)CCOc1ccc(C)cc1", "Potency": "inconclusive: 8.91 µM [inhibitor, partial curve, poor fit]"}, {"molecule": "CC1=C(C(=O)OC(C)C)C(c2cccs2)N2C(=O)C(C)SC2=N1", "note": "(configuration not stated)", "Potency": "inconclusive: 28.2 µM [inhibitor, single point]"}, {"molecule": "COCCNC(=O)/C(C#N)=C/c1cc(Br)c(O)c(OC)c1", "Potency": "inconclusive: 3.16 µM [inhibitor, partial curve, poor fit]"}, {"molecule": "CC(Sc1nncn1C)C(=O)Nc1ccc2ccccc2c1", "note": "(configuration not stated)", "Potency": "inactive"}, {"molecule": "O=C(NC1CCCc2ccccc21)c1ccc([N+](=O)[O-])cc1", "note": "(configuration not stated)", "Potency": "inconclusive: 11.2 µM [inhibitor, single point]"}, {"molecule": "Cc1c(C#N)c2ccccc2n1CC(=O)NCCc1c[nH]c2ccccc12", "Potency": "inconclusive: 12.6 µM [inhibitor, partial curve, poor fit]"}, {"molecule": "CC(=O)C(Sc1nc(-c2ccccc2Cl)nc2c1c(=O)n(C)c(=O)n2C)C(=O)N(C)C", "note": "(configuration not stated)", "Potency": "inactive"}, {"molecule": "O=C(c1cc(N2C(=O)C3C4CCC(C4)C3C2=O)ccc1Cl)N1CCN(c2ccc(F)cc2)CC1", "note": "(configuration not stated)", "Potency": "inconclusive: 28.2 µM [inhibitor, single point]"}, {"molecule": "Cc1cc(N)cc(C)c1-c1c(Br)cc(N)cc1Br", "Potency": "inconclusive: 2 µM [inhibitor, partial curve, poor fit]"}, {"molecule": "CSCCC(NC(=O)C1CCC(C)CC1)C(=O)N1CCN(c2ccccn2)CC1", "note": "(configuration not stated)", "Potency": "inactive"}, {"molecule": "COc1cc(CNC(=O)c2ccc3oc(C(C)C)nc3c2)cc(OC)c1", "Potency": "inconclusive: 15.8 µM [inhibitor, single point]"}, {"molecule": "CC(C)(C)C(=O)Nc1nnc(CSCc2ccccc2F)s1", "Potency": "inconclusive: 31.6 µM [inhibitor, single point]"}, {"molecule": "Cc1ccc(C(OCC(C)(C)C[N+](C)(C)C)c2ccccc2)cc1", "note": "(configuration not stated)", "Potency": "inconclusive: 3.98 µM [inhibitor, partial curve, poor fit]"}, {"molecule": "Cc1ccc(OCCCCCN2CCOCC2)cc1", "Potency": "inactive"}, {"molecule": "COc1ccc(OC)c(/C=C/C(=O)OCC(=O)NC2CCCCCCC2)c1", "Potency": "inconclusive: 10 µM [inhibitor, single point]"}, {"molecule": "COCCN(C(=O)COC(=O)/C=C/c1ccc(C(F)(F)F)cc1)c1c(N)n(Cc2ccccc2)c(=O)[nH]c1=O", "Potency": "inconclusive: 8.91 µM [inhibitor, partial curve, poor fit]"}, {"molecule": "CCCn1nnnc1NC(=O)c1ccc2ccccc2c1", "Potency": "inconclusive: 28.2 µM [inhibitor, single point]"}, {"molecule": "Cc1ccn2c(=O)c(NC(=O)c3cccc([N+](=O)[O-])c3C)c(C)nc2c1", "Potency": "inconclusive: 6.31 µM [inhibitor, partial curve, poor fit]"}, {"molecule": "O=C(CSc1nc2ccccc2c(=O)n1-c1ccc(F)cc1F)c1c[nH]c2ccccc12", "Potency": "inconclusive: 12.6 µM [inhibitor, partial curve, poor fit]"}, {"molecule": "Cc1nn(-c2ccc(N3CCCCC3)nn2)c(C)c1CCC(=O)Nc1cccc(F)c1", "Potency": "inconclusive: 28.2 µM [inhibitor, single point]"}, {"molecule": "CC1CCN(CCCNC(=O)COc2cc(=O)n(C)c3ccccc23)CC1", "Potency": "inconclusive: 0.891 µM [inhibitor, full curve, poor fit]"}, {"molecule": "COc1cc(NS(=O)(=O)c2ccc(Nc3nc(-c4ccccc4)cs3)cc2)nc(OC)n1", "Potency": "inconclusive: 28.2 µM [inhibitor, single point]"}, {"molecule": "CCOc1ccc(C2c3[nH]c4ccccc4c3CCN2C(=O)CCC2CCCC2)cc1", "note": "(configuration not stated)", "Potency": "active: 1.26 µM"}, {"molecule": "CCOC(=O)C1CCCN(C(=O)COc2ccc(C(C)(C)C)cc2)CC1", "note": "(configuration not stated)", "Potency": "inconclusive: 7.94 µM [inhibitor, partial curve, poor fit]"}, {"molecule": "CC(C)Oc1cccc(C(=O)C2CCCN(Cc3cnc(N4CCCC4)s3)C2)c1", "note": "(configuration not stated)", "Potency": "inconclusive: 7.94 µM [inhibitor, partial curve]"}, {"molecule": "O=C(CCc1nnc2n(Cc3ccccc3Cl)c(=O)c3ccccc3n12)Nc1ccccc1", "Potency": "inactive"}, {"molecule": "CC(NC(C)c1ccccc1Cl)C(=O)Nc1cccc(S(=O)(=O)N2CCCCC2)c1", "note": "(configuration not stated)", "Potency": "inconclusive: 11.2 µM [inhibitor, single point]"}, {"molecule": "CCCC(=O)OC(C(=O)Nc1cc(C(F)(F)F)ccc1Cl)c1ccccc1", "note": "(configuration not stated)", "Potency": "inconclusive: 28.2 µM [inhibitor, single point]"}, {"molecule": "CCCN1CCC(=O)N([C@H](CSc2ccc(OC)cc2)Cc2ccccc2)CC1", "Potency": "inconclusive: 11.2 µM [inhibitor, partial curve, poor fit]"}, {"molecule": "CCC(C)N1CCN(S(=O)(=O)c2ccc3ccccc3c2)CC1", "note": "(configuration not stated)", "Potency": "inconclusive: 11.2 µM [inhibitor, partial curve, poor fit]"}, {"molecule": "CCCCN(c1ccccc1)S(=O)(=O)c1cc2c3c(c1)C(C)C(=O)N3CCC2", "note": "(configuration not stated)", "Potency": "inactive"}]}]}
